# Laboratory results taken from PubChem BioAssay AID686978 (National Center for Advancing Translational Sciences (NCATS), 2013).
# The campaign covered roughly 420,000 compounds. About 64,000 (15%) were called active. The shares of active, inactive and inconclusive entries below differ from those in the screen. Calls follow the shape of the dose curve; as a rule, active = well fitted inhibition curve with a large enough effect; inconclusive = small, poorly fitted or top-dose-only effect; inactive = flat fitted curve, though single readings scatter. Potencies of inconclusive entries are left out as doubtful fits.
# Assay: qHTS for Inhibitors of human tyrosyl-DNA phosphodiesterase 1 (TDP1): qHTS in cells in absence of CPT; also: nearly all actives have a fitted effect of over 55% in size
# Details: DT40 Tdp1-/- hTDP1 cells, no CPT, ATP luminescence, 48 h; activity change, negative = growth inhibition: at 46.2 µM (top of the series)
# How it was run: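 Chicken DT40 Tdp1-/- cells complemented with human TDP1, screened without camptothecin (DMSO vehicle only), 400 cells/well. Compounds pin-transferred, cells incubated at 37 °C for at least 48 hr. Growth read as ATP-dependent luminescence (CellTiter-Glo, 30 min at RT).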
# % is scaled to controls: 0 for no effect and ±100 for the full control effect; potency is read from the fitted curve at half-maximal effect; tags tell the direction and shape of the fitted curve.
Structure (SMILES),Potency,"activity change, negative = growth inhibition"
CCC(CC)C(=O)Oc1c(Sc2ccccc2[N+](=O)[O-])c(C)nn1C(C)(C)C,"inconclusive [inhibitor, single point]",–
CS(=O)(=O)NCCCNc1ccc(Cl)cc1[N+](=O)[O-],inactive,–
Cc1c(N=NC2=C(O)CC(C)(C)CC2=O)cc2c(c1[N+](=O)[O-])C(C)(C)CC2(C)C,"inconclusive [inhibitor, partial curve, poor fit]",–
CCOc1ccc(-n2c(-c3ccccc3)c[n+]3c2CCC3)cc1,active: 1.03 µM,–
CC[C@@]1(C(=O)OC)N[C@H](CN(C)C(=O)c2ccc(F)cc2)[C@@H]2C(=O)N(Cc3ccccc3)C(=O)[C@@H]21,inactive,–
Cc1ccc(NC(C#N)c2ccccc2OCc2ccccc2)cc1 (stereo not drawn),"inconclusive [inhibitor, partial curve, poor fit]",–
CCOC(=O)c1c(NC(C)=O)sc2c1CCN(Cc1ccccc1)C2,"inconclusive [inhibitor, single point]",–
CCOC(=O)N1CCC(N2CCN(CCC(C)C)C(CCO)C2)CC1 (stereo not drawn),inactive,–
COc1ccccc1NC(=S)N1CCC(c2nc3cc(C)c(C)cc3[nH]2)CC1,"inconclusive [inhibitor, partial curve]",–
O=S(=O)(c1ccc(Br)cc1)c1nc(-c2ccccc2)oc1NCCN1CCOCC1,"inconclusive [inhibitor, single point]",–
CCn1c(=S)sc2c(=O)n(CC(=O)Nc3ccccc3OC)c(C)nc21,"inconclusive [inhibitor, partial curve]",–
CC(C)C(NC(=O)c1ccc(C(C)(C)C)cc1)C(=O)NCC1(N(C)C)CCCCC1 (stereo not drawn),"inconclusive [inhibitor, partial curve]",–
Cc1ccc(NC(=O)Nc2nnc(Cc3ccc([N+](=O)[O-])cc3)s2)cc1C,"inconclusive [inhibitor, partial curve, poor fit]",–
COc1ccc2[nH]cc(CCNc3cc(-c4ccccc4CN(C)C)ncn3)c2c1,inactive,–
CC(=O)c1c(C)[nH]c(C(=O)COC(=O)c2ccc(Cl)nc2)c1C,inactive,–
C#CCN(C[C@H]1[C@H](OC(=O)Nc2cccs2)[C@H](OC(=O)Nc2cccs2)C[C@H]2C(=O)N(c3ccccc3)C(=O)[C@@H]12)S(=O)(=O)c1ccc(C)cc1,inactive,–
CC(C)(Sc1ccc(CCN(CCCCC2CCCCC2)C(=O)NC2CCCCC2)cc1)C(=O)O,inactive,–
C/C(=N/N=C(/C)c1cccs1)c1cccs1,–,inconclusive: -32% [inhibitor]
